Data as given in the supplement of paper PMC10126150.
Sequences with one replicate were seen in a single cluster, so their values are uncertain.

tested on: ATP; assay: switch fluorescence ratio, 500 uM ATP over buffer (Cy3 cluster intensity, sum of 5 cycles each) (fold (ratio)); higher = stronger signal-on switching upon ATP binding; sequences stand for … in TCGTCGGCAGCGTCAGATGTGTATAAGAGACAGTTTTTTTTTTTTTTTTTTTTTTTTT…TC; details: aptamer strand: ATP DNA aptamer (quencher-CACCTGGGGGAGTATTGCGGAGGAAGG + anchor), 100 nM annealed; ATP concentration: 500 uM; one replicate
Outline: (§1)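 Imaging in selection buffer was followed by imaging after 15 min with 500 uM ATP at 22 °C, for Cy3-labelled switching-strand clusters annealed to 100 nM quencher-labelled ATP aptamer on a modified Illumina MiSeq flow-cell. Five of these buffer/ATP cycles ran, separated by NaOH stripping and re-annealing. The fluorescence ratio per cluster is summed target-cycle over summed buffer-cycle Cy3 intensity, averaged per switch-domain sequence; clusters outside 100-1000 RFU were removed.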
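Further: ATP exposure 15 min at 22 °C before imaging.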

| Sequence | switch fluorescence ratio |
| --- | --- |
| TTTTGAGCCT | 1.04 |
| TTTTGCATCA | 0.981 |
| TTTTGCGGA | 1.01 |
| TTTTGCGTGT | 1.03 |
| TTTTGCTCTG | 0.978 |
| TTTTGGAATC | 1.01 |
| TTTTGTAGG | 1.02 |
| TTTTGTAGGA | 1 |
| TTTTGTCCGT | 0.99 |
| TTTTGTCTCG | 1.04 |
| TTTTGTGCGC | 0.972 |
| TTTTGTTCGT | 0.98 |
| TTTTTAAAGA | 0.997 |
| TTTTTCAAT | 1 |
| TTTTTCACAT | 0.974 |
| TTTTTCATTC | 1.04 |
| TTTTTCCTG | 1.01 |
| TTTTTCGAAA | 1.04 |
| TTTTTGGCC | 1.01 |

tested on: ATP; assay: switch fluorescence ratio, 500 uM ATP over buffer (Cy3 cluster intensity, sum of 5 cycles each) (fold (ratio)); higher = stronger signal-on switching upon ATP binding; details: aptamer strand: ATP DNA aptamer (quencher-CACCTGGGGGAGTATTGCGGAGGAAGG + anchor), 100 nM annealed; ATP concentration: 500 uM; one replicate
Outline: as §1

| Sequence | switch fluorescence ratio |
| --- | --- |
| TCGTCGGCAGCGTCAGATGTGTATAAGAGACAGTTTTTTTTTTTTTTTTTTTTTTTTTGTTTC | 1.06 |
